Sequences and labels used below:
T1: UNK ZnF1-3 (human, UniProt Q9C0B0 31-174)
T1 sequence: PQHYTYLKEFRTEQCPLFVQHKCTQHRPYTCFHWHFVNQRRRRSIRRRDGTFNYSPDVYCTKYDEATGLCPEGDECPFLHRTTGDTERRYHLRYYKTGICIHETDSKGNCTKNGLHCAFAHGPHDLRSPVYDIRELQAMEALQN

B1: chr6:40197388:40197389:+_ENSMUSG00000057716_ENSMUST00000061740|mus_mus|mus_mus_mus_hu_False|28_58 (ssRNA)
RNA: GGGAGUUCUACAGUCCGACGAUCGAGACACUGGGGUGGAUUUAUUCCACCUCUGUUUGGGUGCUAGCCACUAAGACAGCUAUUUUGGGAUUCAUGGCCUUGAAUAUCAAGAGGAAAAGGAAGAGGAUGGAAAGAGUCAAGAGUCAACAGAGGAUUGAGCAUCA
B2: chr14:78183846:78183847:+_ENSG00000119705_ENST00000557342|hu_hu|hu_hu_hu_mus_False|38_108 (ssRNA)
RNA: GGGAGUUCUACAGUCCGACGAUCUCUGUCUCAAAAAUCUUCAUCAGAUGUUUGAGCUCCGUGCAAAGCCUUUGCUCUUUGAGCUUGAACGUGGAUCUUUACUCCAUAAAGCACUGUCAGAAAAGGUAAUUUUUUUUUUAAAGACAACAGAGGAUUGAGCAUCA
B3: chr12:48362563:48362564:+_ENSG00000134291_ENST00000256686|hu_hu|hu_hu_hu_mus_False|8_8 (ssRNA)
RNA: GGGAGUUCUACAGUCCGACGAUCUCCGUCAAGCCCUUCGAUAGACCCUUGCGGGGGAAACUGUAAUCACUUUGUAUGGGGAAGGAAAAGAAACGCCAAAAACUUUCCAAAAAGCGGGGGUGGGGUGUCCCAGGCCUGGGAGGUCAACAGAGGAUUGAGCAUCA
B4: 50829727_50829847_2451_CDS_ENSMUSG00000056592_ENSMUST00000107972|mouse|control|control (ssRNA)
RNA: GGGAGUUCUACAGUCCGACGAUCACACUCACUACAUAUAUGGUGUUUUUCUCCAGUAUGAAUUUUCGUGUGUAGAUUGAGGGACGAUCGUCGGCUGAAGGCCUUCCCACAUUCGGAACAUGCAUAAGGCGUCUCCCCGGUAUGCAACAGAGGAUUGAGCAUCA
B5: chr9:58722913:58722914:-_ENSMUSG00000032340_ENSMUST00000068664|mus_mus|motif|central (ssRNA)
RNA: GGGAGUUCUACAGUCCGACGAUCGCGACAUACACGUUUGCUCCACACCCACUGGAAGGAAGCUGCUAGGCCCCAGCUCAACGGGGACACGACAAGACACACAAUGGUUUAGUUUCCAGAGUCACAGGAAAAUAUAAGACAUAUCAACAGAGGAUUGAGCAUCA
B6: chr1:29069144:29069145:+_ENSG00000198492_ENST00000541996|perfect_dup|motif|central (ssRNA)
RNA: GGGAGUUCUACAGUCCGACGAUCUGAGAAGUCAAUCCCACUGGGAAAGAAAUUAAAACCAUGCUGACCAAGAAAUGGAGUGCGGCCGGGGGCUCCUGGUUGCCCAAACAUUGCAUCUGGUAGGAAGUGGGGCUCUCCGUUGCUCAACAGAGGAUUGAGCAUCA
B7: chr12:105536279:105536280:+_ENSG00000136051_ENST00000332180|hu_mus|hu_hu_hu_mus_True|78_78 (ssRNA)
RNA: GGGAGUUCUACAGUCCGACGAUCAGCACUGAACAUGUAAUGUAAUCUGGCUGCAUCAACAGCAUUUUCAUAUACAUCAUCUAAAUAAAUCGGGAAGACAGCGCGAUGCCAGUAUAAAAAACAGCAGUCACACUGUGCUUGGACCAACAGAGGAUUGAGCAUCA
B8: 43452375_43452495_801_CDS_ENSG00000152518_ENST00000282388|human|control|control (ssRNA)
RNA: GGGAGUUCUACAGUCCGACGAUCAUGGCGAGUCAGGCUGCGCAGCUCGUGGAAGCCAUGCGCGAACUGGCACUUUUCGCCGUACUUGCACGUGCCGCUCUCCUCGAAGGGCCGGCACAGCUCGGUCUUGUAGCGCGUGGAGUUCAACAGAGGAUUGAGCAUCA
B9: chr19:16212804:16212805:+_ENSG00000167460_ENST00000300933|hu_hu|FALSE|FALSE (ssRNA)
RNA: GGGAGUUCUACAGUCCGACGAUCAGGAAAUAUGCAAAAGAACAUCACAUCAAGGAUCAAUUAAUUACCAUCUAUUAAUUACUAUAUGUGGGUAAUUAUGACUAUUUCCCAAGCAUUCUACGUUGACUGCUUGAGAAGAUGUUUCAACAGAGGAUUGAGCAUCA
B10: chr3:149686290:149686291:-_ENSG00000070087_ENST00000452853|perfect_dup|FALSE|FALSE (ssRNA)
RNA: GGGAGUUCUACAGUCCGACGAUCGCCAAGAGUCAAACCGUUGGUAAAGAAACCUUCCCGGUCUUUUCCUACAAUCAUAUCUAUUUCUAUUGGCGUAAUGCUCUGAAAGACGCCCCCGGCCGUGGCUGCCCAGACGUAUUUGGCCAACAGAGGAUUGAGCAUCA
B11: 20139645_20139765_1461_CDS_ENSMUSG00000044066_ENSMUST00000050611|mouse|control|control (ssRNA)
RNA: GGGAGUUCUACAGUCCGACGAUCCUCCUCUUCUGAUGGCCAUCCAGGCGUCACACAGGCCGGGCAGCUAACAUGCUGCCUGCCUCUCUUCUGUCUGGGAAAGGGUGGCUCUUUCUCCUUCGUCUUCAGCUGGGGAGAGCCCAUCAACAGAGGAUUGAGCAUCA
B12: 38800450_38804603_1062_CDS_ENSG00000143889_ENST00000409328|human|control|control (ssRNA)
RNA: GGGAGUUCUACAGUCCGACGAUCAUUUCCUCCAUGCAUGUAAGAGGAAGAAGCCUGUGGUAAUGGAUAAGCAACAAGUUCAGGUGUAUCUCGAGAGCCCAUUCUGUAACGACUUGGUAAAGGCAAUAAUGGACCAUGGGAUCCCAACAGAGGAUUGAGCAUCA
B13: chr10:27425285:27425286:-_ENSG00000136758_ENST00000375972|hu_mus|motif|central (ssRNA)
RNA: GGGAGUUCUACAGUCCGACGAUCUCUGUCCCGCAAAAGAAACCCCUUCACAAAUGAUGGUGCUAUAUUCUGUGCUUCGGCGGAUCUUUCAGAGGUAGACUGCAAACGUCGUGUCCUUGAUUUCAACGUUUUGAAACCCCGAGACAACAGAGGAUUGAGCAUCA
B14: chr11:86518203:86518204:-_ENSMUSG00000047126_ENSMUST00000103186|perfect_dup|FALSE|FALSE (ssRNA)
RNA: GGGAGUUCUACAGUCCGACGAUCGAACAACUCCAGGUGUUCUCUCAUUUUCUGUGGCUUGAAUUUAGAAUACAAAAUAGCUAGCUCUGUGAACAUUCCCAUGUGAGCUCGCUCCAGUCCCAAGGCUGCCUCCAACAUGGUGAUCAACAGAGGAUUGAGCAUCA
B15: chr3:148802587:148802588:-_ENSG00000071794_ENST00000310053|hu_mus|hu_hu_hu_mus_False|58_58 (ssRNA)
RNA: GGGAGUUCUACAGUCCGACGAUCUCCAACAACUUGUCCUCUCAUAGUUCCAAAUAAAACCAAAUCUUGCUCUUCAUCACUAGUUAGGAAGUCAUCUGGAGGAAUAAUGUCUUGGAAUUCAAAAUGUGGCAAGAAAGUUGAGUACAACAGAGGAUUGAGCAUCA
B16: chr9:95013113:95013114:-_ENSG00000196305_ENST00000443024|hu_hu|hu_hu_hu_mus_False|1_28 (ssRNA)
RNA: GGGAGUUCUACAGUCCGACGAUCCUCAGUCAGAAAGGGCGUGUAAGGGGCCAUCAGUCUGCACAGAGAAAGCAGGACACUGAACAGUGUCUCCAGAGCCAUGACACAAUCCUCCAUCCCACUCUCACCCUUUAACCUUCUGCGCAACAGAGGAUUGAGCAUCA
B17: chr4:77932910:77932911:+_ENSG00000138758_ENST00000541121|hu_mus|FALSE|FALSE (ssRNA)
RNA: GGGAGUUCUACAGUCCGACGAUCUUUAAUUUUCAAUUCUUCUUGCAAGUAGGCCUCAAACUGGGCGUCAAUGUAUUCCACUAUAGGCUUAUAGCUGUCAUCUUUAUUAAUCUGGUCUCCAAAUCCCACUGUGUCAACGAUUGUCAACAGAGGAUUGAGCAUCA
B18: chr4:13604834:13604835:-_ENSG00000038219_ENST00000040738|hu_hu|FALSE|FALSE (ssRNA)
RNA: GGGAGUUCUACAGUCCGACGAUCACUCAGUAACAUUCUAUGAACAGUUUCAGAAUCUAUAUUCACUUCAGUAGUUCCUCUAUGAAUGGGUUCUUUCUCCCCAGGGUUCAUUUUGGACACAGCACUUUGUAUAUGCAUUUUCUUCAACAGAGGAUUGAGCAUCA
B19: chr7:54825262:54825263:-_ENSG00000132432_ENST00000352861|hu_hu|hu_hu_hu_mus_False|8_78 (ssRNA)
RNA: GGGAGUUCUACAGUCCGACGAUCCUGCCGGCUGGGCUCCACAAACUGCAUUACCUGCAUGACUGCCGUUGGAUGGCGGAUUGAGAGCGUAGAGACACGUAGCUCAGGAGAGAACCGAGCCCAACGGCACCGGAACCUGGCAACCAACAGAGGAUUGAGCAUCA
B20: chr1:63797873:63797874:+_ENSMUSG00000025962_ENSMUST00000128621|mus_hu|motif|central (ssRNA)
RNA: GGGAGUUCUACAGUCCGACGAUCUCCUCUGGGGUGGCUUGAACCCAAACAAUAAGCAGAUCUGGAAACACAUAGCACAGCGGCUCUUUGAAUAUCUGUAGCAGAAGUUGUAUCCACAUCAGAAAGUGGUAGCACUUGAUUCCUCAACAGAGGAUUGAGCAUCA
B21: chr7:97319096:97319097:+_ENSMUSG00000039361_ENSMUST00000049537|mus_hu|motif|central (ssRNA)
RNA: GGGAGUUCUACAGUCCGACGAUCAUCUUUGAACAGGAGCAUGAAGGCAGCAUUUAUUACCCCAUUUGUAAGUUCAUUGCGGUUAACAUUAAAAUCAAGAAGUGCAUCCAUCUGAUUCUGAAUAAUUGGUACAGUUUUUAGGAGCAACAGAGGAUUGAGCAUCA
B22: chr4:175160266:175160267:-_ENSG00000164117_ENST00000503293|hu_hu|FALSE|FALSE (ssRNA)
RNA: GGGAGUUCUACAGUCCGACGAUCAGGGGCAUGGAUAUGACGAAAAAAUUCUCUCAGUGCAUUUGGCAAGAACUGAUUUCUAAAAUUAUGCAAUGUUACAAGGUCAUCCAAGACAUCUCUCCUUUCAUCAAGAUAGAUUCUCAGCAACAGAGGAUUGAGCAUCA

This is one part of the list.

The target of the experiment is T1, UNK ZnF1-3. Kind of experiment: nsRBNS (natural sequence RNA bind-n-seq); RBNS binding buffer (assumed for nsRBNS): 25 mM Tris pH 7.5, 150 mM KCl, 3 mM MgCl2, 0.01% Triton X-100, 500 ug/ml BSA, 20 U/ml SUPERase-In, 4 C; UNK is unkempt and MSI1 is Musashi-1; names of the RNAs are library labels; protein concentration not given here; high values mean tight binding.
Molecule B1 registered a binding signal of 1.54 enrichment R.

As for B2, the binding signal was 1.05 enrichment R.

As for B3, the binding signal stood at 2.13 enrichment R.

As to B4, the binding signal is 0.719 enrichment R.

Consider B5, for which the binding signal was found to be 1.31 enrichment R.

B6 registered a binding signal of 1.27 enrichment R.

B7 gave a binding signal of 2.56 enrichment R.

Take B8: the binding signal is 0.439 enrichment R.

B9 had a binding signal of 0.404 enrichment R.

Molecule B10 had a binding signal of 0.967 enrichment R.

Turning to B11, the binding signal worked out at 0.617 enrichment R.

With B12, the binding signal was determined as 1.34 enrichment R.

In turn, B13 showed a binding signal of 0.818 enrichment R.

B14 displayed a binding signal of 0.821 enrichment R.

Regarding B15, the binding signal was 1.33 enrichment R.

Consider B16, for which the binding signal came out at 0.952 enrichment R.

B17: the binding signal was 0.625 enrichment R.

As to B18, the binding signal came to 0.794 enrichment R.

B19 had a binding signal of 1.28 enrichment R.

B20 had a binding signal of 1.29 enrichment R.

B21 registered a binding signal of 1.54 enrichment R.

B22 returned a binding signal of 1.14 enrichment R.

The values are drawn from publication PMC12136788.
